# Like-named read-outs stand apart in the source and are kept apart here.
# Legend:
# [1] = parameters: species or system Yorkshire pigs; settings: Yorkshire, pig, in vivo
# [2] = test system: porcine bronchial adventitia; settings: pig, in vivo
# [3] = test system: bronchial wall
# [4] = test system: cancer cell lines such as H358 and H460; settings: cited from earlier work
# [5] = 135 mg/m^2 dose administered over 24 hours; package insert; cited from earlier work
# [6] = in vivo; settings: pig, bronchial tissue, other: local injection to the bronchial adventitia
# [7] = in vivo; settings: pig, plasma; for concentration at 7 days: other: local injection, per site
# [8] = test system: porcine bronchial adventitia; assay: Histopathology one week after paclitaxel delivery to porcine bronchial adventitia in vivo
# [9] = test system: bronchial adventitia of Yorkshire pigs; assay: GLP 28-day study: saline or paclitaxel injected to bronchial adventitia with Blowfish catheter; tolerability and histopathology
# [10] = 7 days, 0.05 mg and 0.5 mg per injection site
# [11] = 7 days, 2.5 mg/mL, 5 mg per injection site
structure (smiles),measurement,setting,value
CC(=O)O[C@H]1C(=O)[C@@]2(C)[C@H]([C@H](OC(=O)c3ccccc3)[C@]3(O)C[C@H](OC(=O)[C@H](O)[C@@H](NC(=O)c4ccccc4)c4ccccc4)C(C)=C1C3(C)C)[C@]1(OC(C)=O)CO[C@@H]1C[C@@H]2O [paclitaxel],time out to which PTX was measured in plasma,[1],120 h
same,drug level in bronchial adventitia,"7-day study, tissue concentration data",sufficient drug in the bronchial adventitia at cancer inhibiting levels
same,paclitaxel presence in bronchial tissue,"after 28 days, 0.5 and 1.5 mg/mL groups",present in bronchial tissue
same,time to which tissue levels are maintained at cancer-inhibiting levels,"generic paclitaxel, study conclusions",7 days
same,systemic toxicities,[2],no observed systemic toxicities
same,safety of injection into the bronchial adventitia,"[3]; 0.5 mg/mL dose, balloon mounted injection needle",safe
same,safety of injections into the bronchial wall,[3]; 1.5 mg/mL dose or less,safe
same,systemic or local parenchymal toxicity,[3]; high local concentrations within the wall of the bronchus,no observable systemic or local parechymal toxicity
same,concentration effective in suppressing cancer cell lines,"[4]; if present for 96 hours, literature",10 to 30 nM
same,concentration effective in suppressing cancer cell lines,[4]; various studies in the literature,around 20 nM
same,AUC(0-∞),[5],"6,300 ng*h/mL"
same,concentration at 7 days,"[6]; 0.5 mg/site, average paclitaxel concentration in bronchial tissue, mid dose group, […]",86 ± 33 nM
same,concentration at 7 days,"[6]; 5 mg/site, average paclitaxel concentration in bronchial tissue, high dose group, […]",94 ± 67 nM
same,concentration at 7 days,"[6]; 6.5 mg total paclitaxel, average paclitaxel concentration in bronchial tissue, mid dose group, […]",86 ± 33 nM
same,concentration at 7 days,"[6]; 6.5 mg total paclitaxel, range of paclitaxel concentration in bronchial tissue, mid dose group",26.7 to 122 nM
same,concentration at 7 days,"[6]; average paclitaxel concentration in bronchial tissue, high dose group, […]",94 ± 67 nM
same,concentration at 7 days,"[6]; range of paclitaxel concentration in bronchial tissue, high dose group",47.1 to 141 nM
same,AUC(0-t),[7]; 0.65 mg,18.5 ng·h/mL
same,AUC(0-t),[7]; 6.5 mg,256 ng·h/mL
same,AUC(0-t),[7]; 25 mg,740 ng·h/mL
same,concentration at 7 days,[7]; 0.65 mg,< 0.03 ng/mL
same,concentration at 7 days,[7]; 6.5 mg,< 0.03 ng/mL
same,concentration at 7 days,[7]; 25 mg,0.124 ng/mL
same,local adverse reactions,"[8]; 2 mL at 2.5 mg/mL, 5 mg per site",local adverse reactions that could be considered dose-limiting toxicities
same,epithelial loss,[8]; [10],minimal
same,evidence of damage,[8]; [10],not associated with evidence of damage
same,"luminal thrombus, bronchial injury",[8]; [10],no evidence of luminal thrombus bronchial injury
same,lymphocytic response / inflammation,[8]; [10],lymphocytic response and mild inflammation
same,inflammation associated with necrosis,[8]; [11],moderate
same,luminal thrombus and epithelial loss,[8]; [11],overall minimal
same,mean bronchial injury,[8]; [11],moderate
same,necrosis,"[8]; 7 days, highest dose 2.5 mg/mL, 5 mg per injection site","multifocal marked subacute necrosis of bronchial cartilage, peribronchial tissue and pulmonary parenchyma"
same,reaction to PTX or excipient (Cremophor EL),[9]; 1.5 mg/mL PTX infusions,transient reaction to PTX or excipient (Cremophor EL) for a single animal
same,inflammation associated with treatment,[9]; 28 days,absent to negligible
same,injury (histology),"[9]; 28 days, Treated and Control groups comparable",absent to negligible
same,epithelial loss,"[9]; 28 days, across groups",negligible
same,fibrin/luminal hemorrhage/thrombus,"[9]; 28 days, across groups",absent to negligible
same,local tissue reaction,"[9]; 28 days, all groups",mild to negligible
same,"local tissue responses, microscopic evaluation","[9]; after 28 days, low (0.5 mg/mL) and high (1.5 mg/mL) PTX groups vs saline",favorable local tissue responses
same,"abnormalities in clinical observations, body weights, clinical pathology",[9]; both PTX groups,no other infusion or PTX related abnormalities

# From patent publication US10842969B2, “Systems and methods of treating malacia by local delivery of hydrogel to augment tissue” (priority 2013, dated 2020)
